“And” between values parts separate entries of the source, which are not always exact repeats. Identical values can stand only once.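 Values below derive from 48-hour exposures of cells grown in 96-well plates, with endpoints linearly interpolated between the two concentrations bracketing the appropriate inhibition level. Here, GI50 denotes the concentration required for 50% inhibition of growth. TGI marks complete inhibition of growth.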
Tested on: NCI-H322M lung
Assay: growth of human tumour cells (NCI), 48 h

Structure (SMILES)	TGI	GI50
O=C(O[C@H]1[C@@H]2C=CO[C@@H](OC3OC(CO)C(O)C(O)C3O)[C@@H]2[C@@]2(CO)O[C@@H]12)c1ccc(O)c(O)c1 (stereo partly drawn)	> 100 µM	
CCc1ccc(Cc2ccc(CC)c(NC(=O)C(=O)C3NC(=S)NC3=O)c2CC)c(CC)c1NC(=O)C(=O)C1NC(=S)NC1=O (stereo not drawn)	> 100 µM	
O=C(Nc1cn[nH]c1-c1nc2ccc(CN3CCOCC3)cc2[nH]1)NC1CC1	14.5 µM and > 10 µM	2.78 µM and > 10 µM
Cc1cc(=O)oc2cc3oc(N(C)c4ccccc4)nc(=O)c3cc12	> 100 µM	
COc1cccc(C=O)c1[O-].COc1cccc(C=O)c1[O-].[Zn+2]	> 100 µM	
COC(=O)/C=C\C(C#N)(C#N)N=Cc1cccs1	33 µM	
Cc1nc(C)c(N2CCN(S(N)(=O)=O)CC2)c(=O)[nH]1	> 100 µM	
O=C1CCCCN1	> 1120 µM	
Cc1ccc(-c2nc(/C=N/Nc3cc(C)nc4ccc(Br)cc34)c(C)o2)cc1	3.92 µM	1.93 µM
Cc1cc2c(=O)c(C)n[nH]c2c(C#N)c1C	> 100 µM	
O=S1(=O)c2cc(S(=O)(=O)n3ccnc3)ccc2NC2=NCCCN21	> 100 µM	
CC1=C(SCCO)C(=O)c2ccccc2C1=O	29.1 µM	
O=C(c1ccc2ccccc2c1)c1c(C(F)(F)F)n([O-])c2cc(C(F)(F)F)ccc2[n+]1=O	3.9 µM	1.86 µM
C1=CC=C2NCCc3cccc(c3)CCNC3=CC=CC=CC3=NCCCCCCN=C2C=C1	49.5 µM	
CC(C)(C)OC(=O)NCCC1CNc2ccccc21 (stereo not drawn)	> 100 µM	
CN1c2c(nc(N)[nH]c2=O)NCC1CCNc1ccc(C(=O)NC(CCC(=O)O)C(=O)O)cc1 (stereo not drawn)	2930 µM	
O=C1CCCCCCCCCCC1CN1CCOCC1 (stereo not drawn)	> 100 µM	
COCN1C(=N)C(C(=O)OC(C)(C)C)=C2C=C(O)C=CC21C (stereo not drawn)	28.2 µM	
COc1nc2ccc(CNc3ccc(C(=O)NC(CCC(=O)O)C(=O)O)cc3)cc2nc1OC (stereo not drawn)	> 100 µM	
O=C1NC2(CCCC2)C2CCCCC12O (stereo not drawn)	> 100 µM	
C#CCOC(=O)/C=C/C(=O)Oc1ccc2c(C)cc(=O)oc2c1	> 100 µM	> 100 µM
CCCCCCCC(=O)OC[C@H](C[As](=O)(O)O)OC(=O)CCCCCCC	27.8 µM	
COc1ccc2c(c1)C(=O)c1c-2c(N2CCN(C(=O)CCNCCNCCN)CC2)nc2ccccc12	40.8 µM	19.1 µM
C[C@]12CCc3nonc3C1CC[C@@H]1C2CC[C@@]2(C)C1CC[C@@H]2O (stereo partly drawn)	> 100 µM	
Cc1ccc2[nH]c(O)c(N=Nc3ccccc3[N+](=O)[O-])c2c1	> 100 µM	

Structure (SMILES)	TGI	GI50
c1ccc(SCCc2ccncc2)cc1	> 100 µM	
COc1cc(NC(C)=O)ccc1C(=O)N/N=C/c1ccco1	> 100 µM	
CN(C)CCN(C)C(=O)c1cccc2cccc(C(=O)O)c12	> 100 µM	
Cc1cc(C#N)c(Nc2ccc(F)cc2[N+](=O)[O-])s1	> 100 µM	
CCC[CH2][Sn]1([CH2]CCC)[O]CC[S]1	2.87 µM	1.53 µM
CCn1c(SCC(=O)Nc2cc(C(F)(F)F)ccc2Cl)nc2ccccc2c1=O	> 100 µM	39.9 µM
Cc1ccc2[nH]c(C(=O)NN3C(=O)C(C)SC34CCC(C)CC4)c(-c3ccccc3)c2c1 (stereo not drawn)	42.5 µM	18.5 µM
O=C(c1ccccc1)N(CCCCNC(=O)C(F)(F)F)CCCNC(=O)C(F)(F)F	> 100 µM	
O=C(c1ccccc1)C1OC1C(=O)c1ccccc1 (stereo not drawn)	> 100 µM	17.1 µM
Cc1nn(C(=O)Cc2ccccc2)c2c1C(c1ccc([N+](=O)[O-])cc1)SC(N)=N2 (stereo not drawn)	> 100 µM	
CC(C)c1cccc(C(C)C)c1NC(=O)C(=O)C1CCC2=C(Sc3ccccc3N2)C1=O (stereo not drawn)	> 100 µM	
O=C(Nc1ccccc1Cl)c1ccc(NC2=C(Cl)C(=O)N(C3CCCCC3)C2=O)cc1	21.2 µM	5.79 µM
CCCCC(=O)c1c(O)ccc2c(C)cc(=O)oc12	> 100 µM	
[C-]#[N+]C(=C\c1ccc(O)cc1)/C(=C/c1ccc(O)cc1)[N+]#[C-]	13.4 µM	
CCc1[nH]nc(C(N)=O)c1N=NN(C)C	> 100 µM	
CC(C)C1=CC2=CC[C@@H]3[C@](C)(CCC[C@@]3(C)C(=O)O)[C@H]2CC1	> 100 µM	
COc1cc(/C=C2\NC(=O)C3Cc4c(OC)c(C)c(OC)c(OC)c4C2N3C)c(OC)c(C)c1OC (stereo not drawn)	> 100 µM	
O=c1oc2ccc(Cl)cc2c(=O)n1-c1ccc(F)cc1F	> 100 µM	2.24 µM
CC(ON1[C@](C)(c2ccccc2)CC[C@@]1(C)c1ccccc1)c1ccccc1 (stereo partly drawn)	> 100 µM	
COc1ccc(CNCCCN2C(=O)c3ccc4c5c(ccc(c35)C2=O)C(=O)N(CCCNCc2ccc(OC)c(OC)c2OC)C4=O)c(OC)c1OC	0.315 µM	0.109 µM
Cc1cccc(N=Cc2ccc(N(CCC#N)S(=O)(=O)c3ccccc3)cc2C)c1	> 100 µM	
CC1=C[C@H]([C@H]2C=C(C)C(C(N)=O)=CN2Cc2c(Cl)cccc2Cl)N(Cc2c(Cl)cccc2Cl)C=C1C(N)=O	> 75 µM	
CN(/N=C/c1ccc(Cl)c(Cl)c1)C1=NCCCCN1	15.3 µM	
Oc1ccc(C2Oc3cc(O)cc4c3C2c2cc(O)cc3c2C(c2cc(O)cc5c2C4C(c2ccc(O)cc2)O5)C(c2ccc(O)cc2)O3)cc1 (stereo not drawn)	> 25 µM	
O=C1/C(=C/C=C/c2ccccc2)N=C(c2ccccc2)N1c1ccc(S(=O)(=O)Nc2nccs2)cc1	> 100 µM	

Structure (SMILES)	TGI	GI50
CC[C@H]1CCC/C=C/[C@@H]2C[C@H](O)C[C@H]2[C@H](O)/C=C/C(=O)O1	> 100 µM	0.0618 µM
N#CC1(C#N)[C@@H]2CCC=C(Sc3ccccc3)[C@@H]21	40.1 µM	
O=S(=O)(O)n1ccnc1 (tested in a mixture with another compound)	> 100 µM	
CCO[C@H]1O[C@@H]2OC3(C)CCC4[C@H](C)CCC([C@H]1C)[C@]42OO3 (stereo partly drawn)	> 100 µM	
CC(C)=NOC(=O)OC[C@H]1O[C@@H](n2cnc3c(N)ncnc32)C(O)C1O (stereo partly drawn)	> 100 µM	
NNc1nc2ccccc2o1	> 100 µM	
[Co].[O-]c1cccnc1C=Nc1ccccc1.[OH3+]	> 100 µM	> 100 µM
Cc1ccc(N=C2OP(=O)(Nc3ccc(C)cc3)Oc3ccccc32)cc1 (stereo not drawn)	> 100 µM	
FC(F)(F)c1cc(NC(=S)N2c3ccccc3-n3cccc3C2c2cccnc2)cc(C(F)(F)F)c1 (stereo not drawn)	58.8 µM	20.4 µM
CCOc1ccccc1Nc1ccc(N)cc1S(=O)(=O)O	> 100 µM	
COC(=O)CCC(=O)c1ccc2c(c1)CC1(C2)Cc2ccc(C(=O)CCC(=O)OC)cc2C1	> 100 µM	
CO/N=C(/C(=O)Nc1c[n+](CC(=O)[O-])cs1)c1csc(N)n1	> 100 µM	
CC(=O)Nn1cnc(C(=N)C#N)c1N	> 100 µM	
CN[C@@H](Cc1cccc2ccccc12)C(=O)N[C@@H](CC(C)C)B(O)O	0.313 µM and 0.194 µM	0.124 µM
COc1cc(NS(C)(=O)=O)ccc1Cc1c2ccccc2nc2ccccc12	3.87 µM	1.46 µM
O=C1NC(=S)NC(=O)C1=CC1CC1	> 100 µM	
O=c1cc(-c2ccccc2)oc2c1ccc1ccccc12	> 100 µM	27.1 µM
CC1(O)C2(c3ccccc3)CCC[N+]1(C)CC2 (stereo not drawn)	> 100 µM	
O=C1c2cn[nH]c2N=C(Nc2ccccc2)C1N=Cc1ccc([N+](=O)[O-])cc1 (stereo not drawn)	> 10 µM	
COC(=O)C1=C(C(=O)ON)[C@@H]2C=C[C@@]1([C@@H](Cc1ccccc1)Nc1ccccc1)O2	28.4 µM	15.1 µM
CC1SC2=NC3=C(c4ccccc4C3=O)C(c3ccccc3Cl)N2C1=O (stereo not drawn)	> 100 µM	
NNC(=O)CC(=O)Nc1ccc(S(=O)(=O)c2ccc(NC(=O)CC(=O)NN)cc2)cc1	> 100 µM	
Cn1c2ccccc2c2c3c(c4c5ccccc5n(C5OC(CO)C(O)C(O)C5O)c4c21)C(=O)OC3=O (stereo not drawn)	> 100 µM	
CC[C@]12C=CCN3CC[C@@]4(c5ccc(OC)cc5N(C)[C@H]4[C@@](O)(C(=O)OC)[C@@H]1OC(=O)CCC(=O)O[C@H]1CC[C@H]4[C@@H]5CC[C@H]6CC(=O)CC[C@]6(C)[C@H]5CC[C@]14C)[C@@H]32	> 100 µM	3.59 µM
CC(=O)OCCCCN1C(=O)CSc2ccccc21	> 100 µM	

Structure (SMILES)	TGI	GI50
N#Cc1ccccc1NC(=O)C(=O)C(C(=O)c1ccncc1)C1OC(=O)c2ccccc21 (stereo not drawn)	> 100 µM	
O=[N+]([O-])c1cc(I)cc(/C=N/NS(=O)(=O)c2ccc(Cl)cc2)c1O	53.4 µM	
CCN1C(=O)N(CC)C2C1NN=c1s/c(=C\c3ccc(C(F)(F)F)cc3)c(=O)n12 (stereo not drawn)	> 46.1 µM	0.84 µM
S=C1SCN(Cc2ccccc2)CN1Cc1ccccc1	> 71.7 µM	18.2 µM
Cc1oc2nc(N(C)C)nc(NN)c2c1C	> 100 µM	
Cc1c[nH]c(=O)n(Cc2nnc(CCC(=O)c3nc4ccccc4[nH]3)o2)c1=O	> 100 µM	0.856 µM
Cc1nc2ccccc2c(/C=C/c2ccccc2)c1C(=O)/C=C/c1ccc(C(F)(F)F)cc1	2.86 µM	1.5 µM
CSc1nc(-c2ccccc2)nc(C(C#N)C#N)n1	> 100 µM	
COc1ccc(NC(=O)C(C#N)=C(SC)SC)cc1	> 100 µM	
COc1cc2c(/C=C3/C(=O)Nc4ccc(O)cc43)c(Cl)n(Cc3cc(OC)c(OC)c(OC)c3)c2cc1C	> 30.7 µM	4.79 µM
O=C(C=Nc1ccccc1S)c1ccco1	15.3 µM	
CCCCCCCC(=O)OCC1OC(n2cc(F)c(=O)[nH]c2=O)C(N)C(O)C1O (stereo not drawn)	> 100 µM	
Cc1ccc(/C=N/NS(=O)(=O)c2ccccc2)cc1C	> 100 µM	
CC[O-].CC[O-].O=C([CH-]C(=O)c1ccccc1)CCCCCCC(=O)[CH-]C(=O)c1ccccc1.[Ti+4]	> 100 µM	> 100 µM
COc1c(C)c(OC)c(C(=O)CC(C)C)c(OC)c1C	> 100 µM	
N#CC(C(=O)CCC(=O)Nc1cccc(C(F)(F)F)c1)c1ccccc1 (stereo not drawn)	> 100 µM	
[N-]=[N+]=Nc1c(-c2ccccc2)c(=O)n(-c2ccccc2)c2ccccc12	> 100 µM	
COc1ccc(-c2oc3c(OC)c(OC)c(OC)c(O)c3c(=O)c2OC)cc1O	76.8 µM	< 0.01 µM
Cn1ccc(=NS(=O)(=O)c2ccccc2)cc1	> 100 µM	
CCN(CC)CCn1c(=O)c2cc(OC)c(OC)cc2c2ccc3cc4c(cc3c21)OCO4	23 µM	0.4 µM
COc1ccc(C[C@]23CCC(=O)N2CCc2cc(OC)c(O)cc23)cc1O	> 100 µM	
COc1ccccc1NC(=O)C1=C(C)NC(C)=C(C(=O)Nc2ccccc2OC)C1c1ccccc1Cl	> 100 µM	
O=Cc1ccccc1CCn1c(=O)c2cc3c(=O)n(CCc4ccccc4C=O)c(=O)c3cc2c1=O	> 100 µM	
CCCS(=O)(=O)Nc1cccc(Nc2ncnc3cc(NC(=O)CCl)ccc23)c1Cl	12.6 µM	4.92 µM
